Assay results from PubChem BioAssay AID624296 (National Center for Advancing Translational Sciences (NCATS), 2012).
Values joined by “and” are separate entries in the source; they are usually repeats but may differ in a detail not shown here. Identical values can stand only once. About 9,900 (2.8%) of roughly 350,000 compounds were called active. This list was built around the results that the source calls inconclusive (neither active nor inactive); the mix of calls is not that of the screen. Calls come from the whole dose curve; as a rule, active = well fitted activation curve with a large enough effect; inconclusive = small, poorly fitted or top-dose-only effect; inactive = no such curve, though single readings can be large or run the other way. Where the call is inconclusive, the potency comes from a doubtful curve fit.

assay: A quantitative high throughput screen for small molecules that induce DNA re-replication in MCF 10a normal breast cells.; note: nearly all actives have a fitted effect of over 50% in size; conditions: MCF 10A DNA re-replication, Hoechst nuclear intensity, 48 h; series mostly up to 46.1 µM
Potency is the fitted concentration of half-maximal effect; tags give direction and shape of the fitted curve.

Row | Structure (SMILES) | Potency
1 | O=C(N[C@H](Cc1ccc(Cl)cc1)C(=O)O)OCC1c2ccccc2-c2ccccc21 | inconclusive: 25.9 µM [activator, single point]
2 | CC1=NN(c2ccc(Cl)c(C(=O)O)c2)C(=O)/C1=C/c1ccc(-c2ccccc2[N+](=O)[O-])o1 | inconclusive: 29.1 µM [activator, single point]
3 | O=C(CN1CCN(c2ccc(Cl)cc2)CC1)NCc1ccccc1 | inactive
4 | COc1ccc(N2C(=O)C(CC(=O)O)S/C2=C\C(C)=O)cc1 (centres undefined) | inconclusive: 25.1 µM [activator, single point]
5 | O=C(COC(=O)c1ccc(C(F)(F)F)cc1)NC(=O)NC1CCCC1 | inconclusive: 5.17 µM [activator, partial curve]
6 | CCOC(=O)c1c(CN2CCC(C)CC2)oc2ccc(OC)cc12 | inconclusive: 16.4 µM [activator, single point]
7 | Cc1ccc(/C=C2\CC(C)CC3=C2NC(=S)NC3c2ccc(C)cc2)cc1 (centres undefined) | inconclusive: 29.1 µM [activator, single point]
8 | CCOC(=O)C1CCN(C(=O)c2cccc(S(=O)(=O)N3CCCc4ccccc43)c2)CC1 | inactive
9 | COc1ccc(/C=N/Nc2cc(C)nc3ccccc23)cc1 | active: 1.64 µM
10 | COc1cc(NCCCn2cnc3c(OCc4ccccc4)ncnc32)cc(OC)c1OC | inactive
11 | CCCn1c(SCC(=O)c2cc(C)n(-c3ccc4c(c3)OCO4)c2C)n[nH]c1=O | inactive
12 | COC(=O)[C@@]1(Cc2ccc(OC)cc2)[C@H]2c3cc(C(=O)N(C)C)n(C[C@H](O)CO)c3C[C@H]2CN1C(=O)c1ccccc1 | inactive
13 | Cc1ccc(Nc2nc(-c3cccs3)cs2)nc1 | inconclusive: 16.4 µM [activator, single point]
14 | CCC(=O)N(Cc1cc2ccccc2[nH]c1=O)c1ccccc1OC | inconclusive: 6.51 µM [activator, partial curve, poor fit]
15 | O=C(NC(=S)Nc1ccccc1Br)c1ccco1 | inactive
16 | O=C(CCc1nc(-c2ccccc2F)no1)Nc1ccc(Oc2ccccc2)cc1 | inconclusive: 20.6 µM [activator, single point]
17 | C/C(=N\NC(=O)c1ccc(Br)o1)c1cc2c(cc1NC(=O)CCC(=O)O)OCO2 | inactive
18 | O=C(NCC(c1ccco1)N1CCN(c2ccccc2F)CC1)C(=O)NC1CC1 (centres undefined) | inconclusive: 29.1 µM [activator, single point]
19 | Cc1ccc2nc3sc(C(=O)Nc4c(C)[nH]c(=O)[nH]c4=O)c(N)c3cc2c1 | inactive
20 | Cc1cc(SCC(=O)Nc2cccc(S(N)(=O)=O)c2)c(C)cc1Br | inconclusive: 18.4 µM [activator, partial curve, poor fit]
21 | COc1ccc(Cl)cc1NC(=O)NC(C)c1ccncc1 (centres undefined) | inconclusive: 20.6 µM [activator, partial curve, poor fit]
22 | CCCCNC(=O)C(C)N(CCN(C)C)C(=O)CCCN1C(=O)NC(c2ccc(Cl)cc2)C(C(=O)OCc2ccccc2)=C1C (centres undefined) | inconclusive: 5.17 µM [activator, single point]
23 | O=C1c2ccccc2C(=O)N1CCc1csc(-c2cccc(F)c2)n1 | inconclusive: 29.1 µM [activator, single point]

Row | Structure (SMILES) | Potency
24 | CCOC(=S)SCC(=O)N1CCc2cc(OC)ccc2C1C1C(=O)CCCC1=O (centres undefined) | inconclusive: 4.11 µM [activator, full curve, poor fit]
25 | C=CCN1C(=O)N/C(=C/c2ccccc2OCC(=O)Nc2ccc(F)cc2)C1=O | active: 23.1 µM
26 | CCOC(=O)C1=C2c3ccc4ccccc4c3CC(C)(C)N2C(=O)C1=O | inconclusive: 16.4 µM [activator, single point]
27 | CSc1ccc(CN2CCC(N3CC(C)OC(C)C3)CC2)cc1 (centres undefined) | inconclusive: 29.1 µM [activator, single point]
28 | CC(=O)c1nn(-c2ccccc2)cc1C(=O)c1ccc(C)cc1 | inconclusive: 6.51 µM [activator, single point]
29 | Cc1ccc(NC(=O)CSc2nc3ccccc3c(=O)n2CCCN2CCCCC2)cc1C | active: 14.6 µM
30 | COc1cc(Cl)c(C)cc1NC(=O)CSc1nnc(-c2ccco2)n1CC(C)C | inconclusive: 32.6 µM [activator, partial curve, poor fit]
31 | COc1ccccc1C(=O)N1CCN(c2ccccn2)CC1 | inconclusive: 29.1 µM [activator, single point]
32 | O=C(c1cccc(S(=O)(=O)N2CCCCC2)c1)N(CCc1ccccc1)Cc1ccccc1 | inactive
33 | CCCCCC(=O)NNC(=O)c1c(O)c2ccccc2n(CC)c1=O | inconclusive: 16.4 µM [activator, single point]
34 | O=C(NCc1ccco1)c1ccc(COc2ccccc2Cl)cc1 | inconclusive: 32.6 µM [activator, partial curve, poor fit]
35 | CCNC(=S)NNC(=O)CSc1nc2ccccc2[nH]1 | inactive
36 | CCN(CC)S(=O)(=O)c1ccc(OC)c(NC(=O)c2ccc(OC)c([N+](=O)[O-])c2)c1 | inconclusive: 32.6 µM [activator, partial curve, poor fit]
37 | COc1ccc(NC(=O)CCn2cc(C)c3ccccc32)cc1 | inactive
38 | O=C(COc1ccc(/C=C2/NC(=O)NC2=O)cc1)Nc1ccc(F)cc1 | inconclusive: 29.1 µM [activator, single point]
39 | CC(=O)Nc1nc2ccccc2n1Cc1ccccc1Cl | inconclusive: 11.6 µM [activator, partial curve, poor fit]
40 | CC(=O)N1N=C(c2ccc3ccccc3c2)OC1(C)C | inconclusive: 16.4 µM [activator, partial curve, poor fit]
41 | CC(C)(C)c1ccc(OCCNC(=O)Cc2ccc(F)cc2)cc1 | inconclusive: 13 µM [activator, single point]
42 | CC1CCCCC1NC(=O)COC(=O)CNC(=O)c1cccc(F)c1 (centres undefined) | inactive
43 | Cc1cccnc1NC(=O)c1ccc2c(c1)OCO2 | inconclusive: 0.651 µM [activator, partial curve, poor fit]
44 | O=C(NCc1ccccc1)c1sc(=S)n2c1[nH]c(=O)c1ccccc12 | inconclusive: 16.4 µM [activator, single point]
45 | O=C(c1cccc(NS(=O)(=O)c2ccc(Br)cc2)c1)N1CCCCC1 | inconclusive: 20.6 µM [activator, partial curve, poor fit]
46 | CCOc1ccc(S(=O)(=O)NCCC(=O)NCCc2ccc(C(C)C)cc2)cc1 | inconclusive: 14.6 µM [activator, partial curve, poor fit]

Row | Structure (SMILES) | Potency
47 | CCC(C)c1ccccc1NC(=O)COC(=O)C1=NN(c2ccccc2)C(=O)CC1 (centres undefined) | inactive
48 | CCOc1ccc(CN(CCO)CCO)cc1[N+](=O)[O-] | inactive
49 | C=CCc1ccccc1OCC(=O)NNC(=S)NCc1ccccc1 | inconclusive: 29.1 µM [activator, single point]
50 | Nc1c(C(=O)NC2CCCC2)c2nc3ccccc3nc2n1/N=C/c1cccnc1 | active: 4.11 µM
51 | COc1ccc(OC)c(-c2csc(NC(=O)c3ccc(F)cc3)n2)c1 | active: 6.51 µM
52 | CC(C)(C)OC(=O)CNC(=O)c1[nH]cnc1C(=O)N[C@@H](CCCCNC(=O)OC(C)(C)C)C(=O)OC(C)(C)C | inconclusive: 20.6 µM [activator, partial curve, poor fit]
53 | O=C(NC1CCN(S(=O)(=O)c2ccc(F)cc2)CC1)c1cccc(F)c1 | inconclusive: 0.116 µM [activator, partial curve, poor fit]
54 | C=C(C(=O)Nc1ccccc1)c1ccc(C)cc1 | inactive
55 | COc1ccc(NC(=O)Cn2nnc(-c3ccccc3NC(=O)C3CC3)n2)cc1 | inconclusive: 29.1 µM [activator, single point]
56 | Clc1cccc(CN2CCc3c([nH]c4ccccc34)C2)c1Cl | inconclusive: 23.1 µM [activator, single point]
57 | COc1ccc(Cl)cc1NC(=O)CN(C)C(=O)CCCc1c[nH]c2ccccc12 | inconclusive: 23.1 µM [activator, single point]
58 | COc1ccc(NC(=O)c2cc(Cl)ccc2Cl)c([N+](=O)[O-])c1 | inconclusive: 23.1 µM [activator, partial curve, poor fit]
59 | CCN=c1scc(-c2ccc3c(c2)NC(=O)CO3)n1N=C1CCCC1 | inconclusive: 20.6 µM [activator, single point] and inconclusive: 29.1 µM [activator, single point]
60 | CCOc1ccc(-c2nnc(-c3cccs3)o2)cc1OCC | inactive
61 | CC1CCCCC12NC(=O)N(CC(=O)N1CCc3ccccc3C1)C2=O (centres undefined) | inactive
62 | CC(=O)c1cccc(NC(=O)CSc2nc(C3CC3)nc3ccccc23)c1 | inconclusive: 18.4 µM [activator, single point]
63 | OC(CNC1CCCc2ccccc21)COc1ccc2ccccc2c1 (centres undefined) | inconclusive: 29.1 µM [activator, partial curve, poor fit]
64 | CCOc1ccc(N2C(=O)c3ccccc3C2O)cc1 (centres undefined) | inactive
65 | Cc1ccc(C(C#N)c2ccc(C(=O)c3ccc(F)cc3)cc2)cc1 (centres undefined) | inactive
66 | CC(C)CN1C(=O)c2ccc(C(=O)NCc3ccccn3)cc2C1=O | inactive
67 | [O-][n+]1onc2c1CCc1c-2nn(-c2ccccc2Cl)[n+]1[O-] | inactive
68 | COc1ccnc(N=CNOCc2ccc(C)cc2)c1C#N | inactive
69 | COc1ccccc1-n1cnc(N)c1C(=O)c1ccccc1 | inconclusive: 29.1 µM [activator, single point]
